Experimental data taken from the RNAGym collection of RNA variant scans (doi:10.1073/pnas.2313332121).
This sample is rich in variants without activity.

B1: TPR 5TU (parent)
chain: GGAUCUUCUCGAUCUAACAAAAAAGACAAAUCUGCCACAAAGCUUGAGAGCAUCUUCGGAUGCAGAGGCGGCAGCCUUCGGUGGCGCGAUAGCGCCAACGUUCUCAACUAUGACACGCAAAACGCGUGCUCCGUUGAAUGGAGUUUAUCAUG

Variants of: B1
Assay: polymerase ribozyme fitness, log enrichment relative to wild type (log ratio); higher = more active; in vitro selection for triplet polymerase activity
Summary of the method: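 The heterodimeric triplet polymerase ribozyme's subunits were each mutagenized into PCR-built libraries and transcribed. Every library was selected once, in triplicate, by annealing with a biotinylated primer, the partner subunit and triplets, incubating frozen at −7 °C, gel-excising extended constructs, capturing on streptavidin beads and running RT-PCR. Input and output libraries were Illumina-sequenced, with genotypes kept only at ≥10 input reads and ≥1 read per output. Fitness, from inverse-variance-weighted replicate averages, is the base-2 logarithm of genotype enrichment over wild-type enrichment.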

| Variant | polymerase ribozyme fitness (log ratio) |
| --- | --- |
| A3G U6G A12U C14A U53G G84A A119U A147C U151G | ≤ -4.2 |
| A3G U7G C38U A40G C54G C95U U145A | ≤ -4.2 |
| A3G U13A A39U U55A A66G C72A C108U | ≤ -4.2 |
| A3G U13G A39C G48U C76G C103A C116A | ≤ -4.2 |
| A3G U15G G71U U77C | ≤ -4.2 |
| A3G U31A U44G G62A G94A | ≤ -4.2 |
| A3G U31C A37C G84A A107C G152U | ≤ -4.2 |
| A3G U56A G58C U61A G86U C87A G100U | ≤ -4.2 |
| A3G U77A C79U C85U C96U C125G A138G | ≤ -4.2 |
| A3U A12C G83C U127G U134C | ≤ -4.2 |
| A3U A16C A52U C57U C76U G86U | ≤ -4.2 |
| A3U A16G C35U C87U A106G G133U G136C | ≤ -4.2 |
| A3U A17C G94C | -0.825 |
| A3U A17U C43U C87G G88A | ≤ -4.2 |
| A3U A19C A37G A49U C51U C85U G92A C96A A97G U144A U146G | ≤ -4.2 |
| A3U A20U U33G C43U G48C C57U C85U C103A | ≤ -4.2 |
| A3U A21C U77G C96G | ≤ -4.2 |
| A3U A21U G50U G58A U77A G100U A137G | ≤ -4.2 |
| A3U A21U G58C G68C U77C U144C | ≤ -4.2 |
| A3U A22C C87A G92U | -0.18 |
| A3U A22G C43U G68A U78G G92A A107U A110G A113G U151C | ≤ -4.2 |

| Variant | polymerase ribozyme fitness (log ratio) |
| --- | --- |
| A3U A23G C38A G80U U82C | ≤ -4.2 |
| A3U A23U A113U | ≤ -4.2 |
| A3U A23U U53A A110C | ≤ -4.2 |
| A3U A24G C36U U56A G59A | ≤ -4.2 |
| A3U A24G G81A G83U A89U A110C | ≤ -4.2 |
| A3U A26C C54U U102A G124U U144C U151A | ≤ -4.2 |
| A3U A26C G71A | ≤ -4.2 |
| A3U A26U C93U C95U C99G C125G | ≤ -4.2 |
| A3U A28C C63U C85U A142C G152U | -3.91 |
| A3U A28C G84A G117U A119U G124U | ≤ -4.2 |
| A3U A28C U55G U56G C63G G86C A91C | ≤ -4.2 |
| A3U A28C U61A C96U C99U U102C C149U | ≤ -4.2 |
| A3U A28U U44G C72G G83U G86U G141A | ≤ -4.2 |
| A3U A30U G34A G50A U77G U82G G100A A122U G143U | ≤ -4.2 |
| A3U A37U C96U C118G | -3.38 |
| A3U A37U G70C C85U G92A | ≤ -4.2 |
| A3U A40U G50C G100A U111C U145A | ≤ -4.2 |
| A3U A41U C85U C118U A119C U139G G141A | ≤ -4.2 |
| A3U A47C C105U A120C G124A | -1.78 |
| A3U A52G C96G C131U | -0.0465 |
| A3U A60G G70C G80C G86A U135G U144A | ≤ -4.2 |

| Variant | polymerase ribozyme fitness (log ratio) |
| --- | --- |
| A3U A73G G86U C129A A137G | ≤ -4.2 |
| A3U A91C | -3.34 |
| A3U C5A A30U A39U A49U C99U G124A | ≤ -4.2 |
| A3U C5G A37G C95U U130G U144C | ≤ -4.2 |
| A3U C5G C51U G67A U127A | ≤ -4.2 |
| A3U C8A A17G U56A G59A C85A A120G | ≤ -4.2 |
| A3U C8A C36A G48A A73C G81A G92A | ≤ -4.2 |
| A3U C8G C54G G71A C93G U146G | ≤ -4.2 |
| A3U C8U | -0.611 |
| A3U C14A C35U A47C U55A A138C | ≤ -4.2 |
| A3U C14A G42U A52G G140A U144C | ≤ -4.2 |
| A3U C14G A29C C38U G67A G81A C87U G92C A121G C132A U144A G152A | ≤ -4.2 |
| A3U C14G C38U G70A A91U C99U U101G G136U G141A | ≤ -4.2 |
| A3U C14U A17G G48A C99U A122G C123A | ≤ -4.2 |
| A3U C14U G50C C75U C93U | ≤ -4.2 |
| A3U C18G A28U C38U G92U C96G C132A G141A U145G | ≤ -4.2 |
| A3U C32G C75A G84C | ≤ -4.2 |
| A3U C35A C108G | ≤ -4.2 |
| A3U C35U A91U | ≤ -4.2 |
| A3U C36U C95U | -3.09 |
| A3U C36U G67U C95A | ≤ -4.2 |

| Variant | polymerase ribozyme fitness (log ratio) |
| --- | --- |
| A3U C38A C85G C99U G124A | -3.77 |
| A3U C38A C87U C95U G128C | ≤ -4.2 |
| A3U C38U U55A A60C G68U G71A A107U G133C A137G U139C | ≤ -4.2 |
| A3U C51G G86A A91U C125U | ≤ -4.2 |
| A3U C51U U56G G58C G59A A73G | -3.64 |
| A3U C54G U78G C85A U127C C149G | ≤ -4.2 |
| A3U C57A C72U G86A C116G G140U | ≤ -4.2 |
| A3U C75G G81A G141U | ≤ -4.2 |
| A3U C76G C96A A122U | ≤ -4.2 |
| A3U C85A | -1.48 |
| A3U C85U A91U C95G G140U | ≤ -4.2 |
| A3U C96U A97G | 0.661 |
| A3U C114U C118G A137C G141C | ≤ -4.2 |
| A3U G25U C27U C36A C87U C105G C118U G152C | ≤ -4.2 |
| A3U G50C U53A G68A C76G G94U A97G A120C C125U | ≤ -4.2 |
| A3U G50C U61A G88A C99G U135C U146C | ≤ -4.2 |
| A3U G50C U77C A91C A97U | ≤ -4.2 |
| A3U G58A U78G C87G | ≤ -4.2 |
| A3U G58U U78G C79U G80A C85U C96U A106G A147C | ≤ -4.2 |
| A3U G59U G80C G92U A113G U127G | ≤ -4.2 |
| A3U G68U C69G U101G | ≤ -4.2 |
